Data on 43 molecules can be found in ChEMBL document CHEMBL4888484, “Replenishing the malaria drug discovery pipeline: Screening and hit evaluation of the MMV Hit Generation Library 1 (HGL1) against asexual blood stage Plasmodium falciparum ,using a nano luciferase reporter read-out” (2022).

Hit rate of the full screen: of about 150,000 compounds, about 540 (0.36%) showed an effect of 50% or more. The list shows a part of the results.

In this assay the test system is Plasmodium falciparum. Briefly: Primary screen in NF54 nanoGlo assay, in single point, at 2uM, 72h; a lower Z score goes with more inhibition. Type of assay: functional, Erythrocyte. As to conditions: timepoint 72 hour.
Consider `Cc1nccc([C@H](C)NC(=O)C2(O)CCC(C(F)(F)F)CC2)n1` (stereo partly specified), for which the “% Inhibition” value came to 2% and the Z score is given as -0.35.
For `c1ccc(OC[C@@H]2CCCN2c2ccc3nnc(C4CC4)n3n2)cc1`, in that order: 2% and -0.3.
For `CC(C)Oc1ccnc(NC2CCCCCC2)n1`, in that order: -2% and 0.15.
For `CC(C)NC(=O)C[C@@H]1O[C@H](CNS(=O)(=O)c2ccccc2)[C@@H](O)[C@H]1O` the same measures were 24% and -2.74.
On to `O=C([C@@H]1C[C@H](F)CN1S(=O)(=O)Cc1ccccc1)N1CCc2ccccc2C1`, for which the “% Inhibition” value was -2% and the Z score is 0.25.
For `CN(C)[C@H]1CCN(CC(=O)N(Cc2cccnc2)C2CCCCC2)C1` the same measures were -5% and 1.
For `CC(C)(C#N)c1ccc(-c2cc3nncn3c(N)n2)cc1`, in that order: 3% and -0.39.
For `CCOC1CC2(NC(=O)N(c3cscc3C)C2=O)C1(C)C` (stereo unspecified), in that order: -2% and 0.26.
For `CN(C)c1nccnc1N1CCC[C@H](c2nnc(CN3CCCC3)n2C)C1`, the “% Inhibition” value is reported as -6% and the Z score amounted to 1.19.
In the case of `O=C1CCC(C(=O)N2CCCC2CC2CC3CCC2C3)CN1` (stereo unspecified), the “% Inhibition” value is on record as -7% and the Z score was determined as 1.05.
Turning to `Clc1ccc(COc2cccc(-c3ccnc4ncnn34)c2)c(Cl)c1`, the “% Inhibition” value is recorded as -1% and the Z score was determined as 0.15.
For `CCc1ccc(OCC(=O)Nc2ccc(-c3nc4cc(CC)ccc4o3)cc2)c(-n2cnnc2)c1`, in that order: -13% and 1.7.
Turning to `CCCn1ncc(CN2CCCC23CCN(c2ncccn2)CC3)c1C`, the “% Inhibition” value was -17% and the Z score is listed as 2.2.
For `O=C(NC1(c2cc(C(F)(F)F)ccc2Cl)CC1)[C@H]1CCCOC1`, in that order: 4% and -0.45.
For `CCOc1ccc(NC(=O)c2cn(-c3ncccc3-c3nc(C)no3)cn2)cc1` the same measures were -1% and 0.14.
For `CC(C(=O)NCC1CCCCN(C(=O)C(C)C2CC2)C1)C1CC1` (stereo unspecified) the same measures were 15% and -1.96.
For the molecule `Cc1cc(NC[C@@H]2C[C@H](F)CN2)nc2cc3c(cc12)CCC3`, the “% Inhibition” value is -16% and the Z score was determined as 1.5.
As for `N#Cc1nccnc1N1CCC[C@H](S(=O)(=O)N2CCOCC2)C1`, the “% Inhibition” value is given as 5% and the Z score is -0.97.
For `CC(C)(C)c1ccc2c(c1)N(CC(=O)NC1CCCCCCC1)C(=O)CO2` the same measures were -14% and 2.04.
For `CCCn1cnnc1[C@H](C)Nc1nc(N)ncc1C` the same measures were -11% and 1.43.
Take `CN(CCNc1ncnc2onc(-c3cc(F)cc(F)c3)c12)Cc1ccccc1`: the “% Inhibition” value turned out to be 1% and the Z score is listed as -0.07.
For `O=C(OCc1cccc(COC(=O)C2CCCN2c2ncccn2)c1)C1CCCN1c1ncccn1` (stereo unspecified), in that order: -5% and 0.49.
For `CC(C)n1nccc1C(=O)Nc1nnc(-c2ccn(C)n2)o1` the same measures were -5% and 0.85.
For the molecule `CC(=O)N1CCC[C@H](C(=O)N2CCCN(C(=O)Cc3cccc(F)c3)CC2)C1`, the “% Inhibition” value amounted to 6% and the Z score is -0.73.
For the molecule `COCCn1nnc2c1CCN(C(=O)CCc1c[nH]c3ccc(C)cc13)C2`, the “% Inhibition” value came to 0% and the Z score is given as -0.02.
For `COc1ccc(OC)c(CNC(=O)C2CCN(c3c(NC(C)=O)c(C)nn3-c3ccc(Cl)cc3)CC2)c1`, the “% Inhibition” value is listed as -3% and the Z score came to 0.5.
For `CCc1cc(CNc2nccnc2C#N)[nH]n1` the same measures were 4% and -0.58.
Take `CCc1[nH]c2c(CNC(=O)Cn3ccc(=O)[nH]c3=O)cc(F)cc2c1C`: the “% Inhibition” value is given as -1% and the Z score was found to be 0.13.
For `CN(C[C@H]1CCCCO1)C(=O)c1cccc(-c2ccc3nc[nH]c3c2)c1` the same measures were -1% and 0.09.
For `CCC1(CN=C(N)N(C)C)CCCCC1` the same measures were -6% and 0.65.
For `CC1(C)C(=O)NC(=O)N1Cc1noc(-c2cc(OC(F)F)cc(OC(F)F)c2)n1`, in that order: -10% and 0.97.
Turning to `COCc1nc(C)cc(N2C[C@@H]3OC(=O)N(C4CCN(C(C)C)CC4)[C@@H]3C2)n1`, the “% Inhibition” value turned out to be 4% and the Z score was -0.6.
For `O=C(N[C@H]1CC[C@H](O)CC1)N1CCC(Cc2ccc(F)cc2)CC1`, in that order: 0% and 0.08.
For `CCc1nc2c(N3CCN(C(=O)c4cccc(OC)c4)CC3)ncnc2o1`, in that order: -12% and 2.12.
For `CN1N=C(C(=O)NCCNc2ncccn2)CCC1=O` the same measures were -5% and 0.75.
Consider `COc1cc(Br)ccc1S(=O)(=O)n1cncn1`, for which the “% Inhibition” value is recorded as -1% and the Z score came out at 0.14.
For `C[C@@H](C(N)=O)N(C)CCOc1ccccc1Cl`, in that order: 5% and -0.7.
For `CC(C)c1nc(C(=O)NC2(CN3CCCC3)CCCCC2)cs1` the same measures were -12% and 2.02.
For `O=C(Cc1cnn(-c2ccccc2)c1)NC1CCCCC1` the same measures were 30% and -3.88.
Turning to `O=C(c1ccc(F)cc1)N1CCN([C@H](C(=O)N2CCc3ccccc3C2)C2CCCC2)CC1`, the “% Inhibition” value is given as 0% and the Z score is on record as 0.02.
For `CC1(C)COCCN1CCNC(=O)N1CC[C@H](Oc2ccccc2Cl)C1` the same measures were -4% and 0.58.
For `Cc1cc(CN2CCN(C(=O)Nc3ccc(=O)n(C)c3)CC2)on1`, in that order: -7% and 1.48.
Turning to `Cc1ccccc1NC(=O)C1CCN(c2cc(-c3cccc(F)c3)ncn2)CC1`, the “% Inhibition” value is listed as -9% and the Z score is reported as 1.62.

The term % Inhibition denotes the relative decrease from the control value, in per cent.
